This passage reports self-cleavage results from the RNAGym collection of RNA variant scans (doi:10.7554/elife.90254).

Sequences and labels used below:
B1: OR4K15 (parent)
chain: GUUAACGGUCAUAGGCCAUGGAAACUAGGAGCACCAUUUCGCUGCCAGUGAAGAAAUGAACAAAGAAAAUCUGGGCCAGGCAGGCAUCAAAAGAAAUAGUCUUGCGCUCAACCAGAAAGUCUGUAAUCAUUUUAAGGGUA

Read counts are not given, so values of variants with three or more changes are uncertain.

The variants in this data set derive from B1. The data set is described as follows: self-cleavage, relative activity (ratio to wild type); higher = more cleavage; in vitro, sequencing; the parent is a self-cleaving ribozyme.
On to A11G A13G C35U A68U, for which the self-cleavage amounted to 0.99.
The value for A11G A36U U39A A52G A125G U139C was 0.58; that for A11G A18G U43C A54U A134U was 1.32; that for A11G U39C A56G was 0.47.
The value for U9G A22G C77U was 1.63.
For A11G U43A A90G U122C, the self-cleavage stood at 0.54.
The value for A11G A86G A96G was 1.29.
Regarding A11G A60G A82G A118G, the self-cleavage stood at 0.1.
As for A11G A36C U43C A51G A60G A67C A94G A126G, the self-cleavage was determined as 0.62.
In the case of A11G A36G C85U, the self-cleavage came out at 1.26.
Turning to A11G U39A A118U U127A, the self-cleavage is 0.9.
Take A11U U12A A47G U57C: the self-cleavage was 0.33.
The same measure for U9C U39C A91G: 1.54.
U9C U102C A126G: the self-cleavage was determined as 0.83.
Regarding A11G A64G A67U, the self-cleavage was found to be 0.54.
With A11G A86C A110G, the self-cleavage is 0.06.
The same measure for A11G U43C A64U A96G: 1.27.
Turning to U9C U38C A54G A69G A117G U127C, the self-cleavage worked out at 0.77.
Take U9C U39A A96G U131C: the self-cleavage was 1.75.
As for U9G A11G C113U, the self-cleavage was 0.06.
The value for U9C U37C A86U was 0.63; that for A11G A66G A118U was 0.7.
In the case of A11G U70A C101A, the self-cleavage came to 0.14.
The same measure for U9G A11G U19C C46U: 0.89; for A11G U19C A91G: 1.1; for U9G A56G U72C A86G U108C U139A: 0.05.
Take A11G U39C A91G A96G: the self-cleavage was found to be 1.36.
On to C10U C32U U87C, for which the self-cleavage amounted to 1.56.
As to A11C A30G A66G, the self-cleavage came to 1.35.
The same measure for A11U U120C U131C: 0.72; for U9C U37C U38C A111G: 0.1; for A11C A54G U72C A82G U87C U132C A135U: 0.12.
Turning to A11C A68G U103C U131C, the self-cleavage was 0.04.
For the variant C10U A55G A89G A114G, the self-cleavage stood at 0.22.
Regarding U9C U108C U122C, the self-cleavage came out at 0.
A11G A23G A86G: the self-cleavage worked out at 1.22.
Take A11G A55G U72C: the self-cleavage was 0.16.
On to A11G C42A U130G, for which the self-cleavage worked out at 0.68.
Take C10U A18G C34U U70C A125G: the self-cleavage was determined as 0.29.
For A11G U19C C107G, the self-cleavage was determined as 0.06.
Take A11G A78G A91G U103C: the self-cleavage came out at 0.07.
As to A11G A36U U87C A95C U100C U103C U108C U130A, the self-cleavage was found to be 0.
Take A11C A78G U100C A111G: the self-cleavage was determined as 0.
Take A11G A23G A126U U131A: the self-cleavage was determined as 0.56.
On to A11G A62U A114G, for which the self-cleavage is 1.06.
For A11G U39C U103C, the self-cleavage is 0.61.
Take A11G A56U A111G A126G: the self-cleavage was found to be 0.04.
Turning to C10U A23G A24C, the self-cleavage was 1.97.
With U9C U39A A59G A89U G123U U127C, the self-cleavage is 1.52.
Consider A11G A54G A78G, for which the self-cleavage was 0.37.
On to A11G A24G U103C, for which the self-cleavage turned out to be 0.31.
As to C10A A33G A94G, the self-cleavage is 1.01.
With U9C U43C A69G, the self-cleavage was found to be 1.66.
U9C U43A A90G C128U A129G: the self-cleavage worked out at 0.34.
With A11G A63U A68G, the self-cleavage came out at 0.71.
As for A11G A55G A62U A118G, the self-cleavage stood at 0.44.
For the variant A11G G41A A52G U72A U87C U100C, the self-cleavage was 0.2.
C10A U26C U39C A66G G75C A92G: the self-cleavage was 0.06.
In the case of U9C U39C A59U U70C, the self-cleavage stood at 0.69.
The same measure for A11U U37C U49C A111C: 0.01; for A11G U49C A52G A54C: 1.57.
The same measure for A11G A51U U87C U108C A118U U127C U132C: 0; for A11G A23G U37C A62G A96G A114G: 0.28; for A11U A82U U102A: 0.91.
Regarding A11G U19C A30G, the self-cleavage was 1.25.
As for A11G A51U A110G, the self-cleavage is 0.21.
Regarding U9C U100C A118G U122A, the self-cleavage amounted to 2.14.
As for A11G A47G U49C U131C, the self-cleavage was 0.28.
With U9C U87A A129G, the self-cleavage came to 1.12.
For the variant C10U U49A A54G A60C A68G, the self-cleavage worked out at 0.52.
Regarding A11C A67G A78C, the self-cleavage was determined as 0.34.
Regarding C10U U72C A117G, the self-cleavage was found to be 0.09.
As for A11G A33G A54G A94G U100C A117C, the self-cleavage is 2.79.
The same measure for U9C U49A U122C: 1.46; for C10U U12A A56C A68G: 0.74; for A11G U26C A47G A51G A96G: 0.77.
The value for A11G A24G A55G U72A C81U U103C A114U was 0.17; that for U9C U49C A82U was 0.16; that for A11U A27G A92G was 0.75.
On to A11G A47C A55U, for which the self-cleavage was 0.76.
On to A11U U72C A82G A89U U100C, for which the self-cleavage was found to be 0.5.
Take A11G U12C U38C U102C: the self-cleavage is 0.55.
For the variant A11C A22G U108C, the self-cleavage turned out to be 0.01.
Take A11G U37C A129U: the self-cleavage turned out to be 0.71.
